ChEMBL document CHEMBL1156245, “Structure-activity relationships for substrate-based inhibitors of human complement factor B” (J Med Chem, 2009)

Substrate: CC(=O)N[C@@H](CO)C(=O)N[C@@H](Cc1cnc[nH]1)C(=O)N[C@@H](CC(C)C)C(=O)NCC(=O)N[C@@H](CC(C)C)C(=O)N[C@@H](C)C(=O)N[C@@H](CCCNC(=N)N)C(=O)Nc1ccc([N+](=O)[O-])cc1
Assay: Activity at human complement factor B by chromogenic assay

B1: Complement factor B (Homo sapiens), P00751 (protein)
chain: MGSNLSPQLCLMPFILGLLSGGVTTTPWSLARPQGSCSLEGVEIKGGSFRLLQEGQALEYVCPSGFYPYPVQTRTCRSTGSWSTLKTQDQKTVRKAECRAIHCPRPHDFENGEYWPRSPYYNVSDEISFHCYDGYTLRGSANRTCQVNGRWSGQTAICDNGAGYCSNPGIPIGTRKVGSQYRLEDSVTYHCSRGLTLRGSQRRTCQEGGSWSGTEPSCQDSFMYDTPQEVAEAFLSSLTETIEGVDAEDGHGPGEQQKRKIVLDPSGSMNIYLVLDGSDSIGASNFTGAKKCLVNLIEKVASYGVKPRYGLVTYATYPKIWVKVSEADSSNADWVTKQLNEINYEDHKLKSGTNTKKALQAVYSMMSWPDDVPPEGWNRTRHVIILMTDGLHNMGGDPITVIDEIRDLLYIGKDRKNPREDYLDVYVFGVGPLVNQVNINALASKKDNEQHVFKVKDMENLEDVFYQMIDESQSLSLCGMVWEHRKGTDYHKQPWQAKISVIRPSKGHESCMGAVVSEYFVLTAAHCFTVDDKEHSIKVSVGGEKRDLEIEVVLFHPNYNINGKKEAGIPEFYDYDVALIKLKNKLKYGQTIRPICLPCTEGTTRALRLPPTTTCQQQKEELLPAQDIKALFVSEEEKKLTRKEVYIKNGDKKGSCERDAQYAPGYDKVKDISEVVTPRFLCTGGVSPYADPNTCRGDSGGPLIVHKRSRFIQVGVISWGVVDVCKNQKRQKQVPAHARDFHINLFQVLPWLKEKLQDEDLGFL
- Km: 1000 µM
